# Assay results published in article PMC10726135.
# The list shows a part of the results. At the low end of the ranking the order means little. Measured with an extract: partners may take part in the binding.
# Target: T1, HNF4alpha8 (COS-7 nuclear extract) (UniProt P41235-5)
# T1 sequence: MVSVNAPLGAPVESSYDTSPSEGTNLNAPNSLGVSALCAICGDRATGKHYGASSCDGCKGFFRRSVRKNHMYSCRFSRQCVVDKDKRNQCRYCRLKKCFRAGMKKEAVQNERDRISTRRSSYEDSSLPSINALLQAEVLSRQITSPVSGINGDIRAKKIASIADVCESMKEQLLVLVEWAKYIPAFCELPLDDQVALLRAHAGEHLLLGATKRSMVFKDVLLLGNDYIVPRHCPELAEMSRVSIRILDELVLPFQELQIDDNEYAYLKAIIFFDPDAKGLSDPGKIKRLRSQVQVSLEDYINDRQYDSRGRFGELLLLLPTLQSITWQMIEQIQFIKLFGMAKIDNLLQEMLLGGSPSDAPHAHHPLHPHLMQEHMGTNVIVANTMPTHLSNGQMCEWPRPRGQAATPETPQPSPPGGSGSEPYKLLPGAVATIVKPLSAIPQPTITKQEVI
# Assay: protein-binding microarray
# Conditions: COS-7 nuclear extract on double-stranded Agilent 4x180k PBM; binding buffer, salt, pH and temperature not given; high values mean tight binding; double strand, one strand shown; sequences stand for … in …GCCTAGGGAGATTAGAGTATCGGTCGA
row,Sequence,binding signal (log2 normalized intensity)
1,AATGATCAAAGAGACACAATCCCTAAGGCC,-1.33
2,AAGAGCAAAGGACCAAAAGATATTTGCTGC,-1.42
3,ATCTTTGACCTCTCCAGGGTCCTTGCCTTA,2.25
4,TCTTGGCTGCTTTAGACATGAGATAGCATT,0.744
5,TCAGAGGCTAAACCTAGCCCCCTTTCCCTT,3.5
6,ACTTCTGTCTCCAGAAATCAACCTTTGATC,8.8
7,TCTACTTGTTAGTAATCGATGTCCATGAAG,1.54
8,AGCAAAGGTCATCCTGGGCTACCGATATGA,1.58
9,TGTGTTTCCCTCCCTGGTATGTACTTTCTT,2.52
10,TTCACCTTTCGCCCTTTGTCCTATGACTCT,5.44
11,GTACAAAGTACAGAGATGGCACAGAGGAGG,-1.38
12,GCATTTAGAAATAGTTGACTTTTCTAACAA,-1.27
13,AAATCTTCCCTCCTGTGAACTCGCGCCCCA,1.91
14,GACCTTTGACTGCAGAAGATAAGAATCTCT,3.73
15,ATAAGGCAGTGGTTTGCAGTTGGAAAGCTG,-1.33
16,ATGTGTTTGCATGACTCATAAAGAACAGTT,0.739
17,TTGACCTTCTCTGTTAACCCTTTGCAGCCC,2.91
18,AATTTACATAACAGGTTTGTAACTTCTTGG,0.645
19,TGTCTCCAGAAATCAACCTTTGATCGTTTG,6.77
20,GGTCTACATGGAAGCCCAGATGACTGCCTT,-1.26
21,GAAGCAATGGCCCTCAGCAAACCTTCTGGC,-1.42
22,TTCATTTGCCCAGCTGTTCCGTGTTCCAGA,0.368
23,AGCCTAGACAAGGCACCAAAGGAATCTACA,-1.26
24,TGCCCAGCAGAAAAGCTGTACCAATTATTG,-1.06

row,Sequence,binding signal (log2 normalized intensity)
1,TCTCACTGCAACCTGAGTGCCAGAGCTGTG,-0.984
2,TCTCTGACGCTCAGTAAATCTGCACTTTAC,2.76
3,GTGCTAAAGGTCATATCCAAAATATTTGCA,3.11
4,AAAGTGCATTGAAAGCACTAATTAACTGAG,-1.22
5,TTCATTATGGATAGGCACATATTGGATCTC,1.32
6,TAGATGTGCTATATAAAAACTAACCATACT,-1.44
7,GGTTTTTCCATTGTACTCAGTATGTGCTGA,1.36
8,GGACACAGAATGACTTTCAGAAAGTCCTTG,0.56
9,AAGGACCTAGAGCTATTCCTTTGAAATGTT,0.636
10,ACAGTACAAAGGTGAGCTTTTATCTTAAGT,3.1
11,TCTGATCCTTTACAGAGATAAGAGGTGTCA,0.332
12,TCTGCAAGGAAGGTGGGGGCCGCCCATTGG,-1.35
13,CATTTTAACCTTTGGCTGGTAGAGCAGGTT,3.14
14,CCGAGCCTCAGCCGGGAGAGGAGGCCCCCT,2.18
15,CGTGGGCGTGAGTTTGCTGTCTTGACTTGG,1.19
16,AAATCCCTGGTCAAAGTCAACTCCTCCAAG,-1.25
17,GTTTTTAAGACAAACAAAAAACCCTAGAGA,-1.44
18,GCTGGAGCTCCTGGGCCAAAGGGCATTCTG,4.62
19,TTGATAACCTACAACCTTCTGAGATGGAGC,-1.2
20,TTATGAAGGGGGGTGGGGAGGCAGGTGGCT,-1.3
21,AAGAAAGTTGAGGTGAATACACAGCTAGCA,-1.25
22,CTGGCTGCCCTGGGGTGACAGCTTTCTCCT,-0.448
23,ACCACTTTGAAATAGTGACCTCTGCTGGCC,3.43
24,ATCGCCACTGATTGAGGTTCACTCTATGTT,-0.9

row,Sequence,binding signal (log2 normalized intensity)
1,GCATTTTTTGTAGATGCCTGCTTTCCACTC,1.39
2,CGCCGCTTCCCCACCCCCTCTCCTCCCTCG,5.29
3,TTTTTTTTCTTAATTGCCCTTTGCCCTTTG,9.03
4,TTAACATTGCCGACCTCATGAGTAGAGAGC,0.0683
5,ATGATGGCCAGTTCAGCGCGTCTTAGCACT,-1.3
6,TTGGTTTATGTTCACCTCAGCACTGAGATA,-0.229
7,CCTCTGCTGCGATCACCCAGGTCCAAGTCA,1.91
8,GGTTCACATTTTTGTCATCTTCACTTTTGT,1.64
9,AGAAGTATGACAACAAAGCATTATCTACAC,-1.27
10,AGGAAGTCGCTTGCCAGTATGCCACTGGTT,-1.27
11,TACAGTAATTAGACAACATCGAAGACTTCA,-1.36
12,TCTGATAAGGGTGTTTGTCCTTTGTTGCAA,1.97
13,AAATTTCCGTGTCGAAACTACAAACGGATA,-1.25
14,TGCCCTTGACTTTTTGTGGGGGCAGATGTT,2.31
15,TGAAGATACTGGATAACCTTCCAGACAGAG,-1.31
16,GTAAGTTCAAGAAGACCTTTGCTCCACGTT,5.12
17,GGACGTGGAATAGATCAGCTTTCAACACTC,-1.26
18,CCTCCCTCCCCCTTTCTCCGCTAAGTGGCT,2.45
19,CAGAACAAAGTCCAGTAAGGACAGTTCCAG,3.12
20,TAAAGCTAACCAGCTCTATCAGTCTGGGTC,-0.733
21,GTAACCTTTGCCCCCCAAGTTGAAGCCATC,5.74
22,GAGTGCCTCCATTTCACAAATGAGGGGACA,0.0214
23,AAGGCATGCTTGGCATCCCTGTGGTATTTG,0.0799
24,AAGCTGAAAACAAATATTTGCCTAGGATTC,-1.21

row,Sequence,binding signal (log2 normalized intensity)
1,TAAAAGGATCATGGAATTTAATTAGCTTCT,-1.37
2,CTGATGTGTTCGCCCCTAGGACACGCAGTT,1.14
3,GCAGAATCAAAGGTCAAAATATCTGATCGA,3.79
4,TCACCTAACCACATTCTTTCTGCATCGCAG,-1.2
5,TTTTCCCTTCTGTTAGAATGTATTGAGAAG,0.754
6,AACCAAGGGTACACACCGTTAGCCAATATT,-1.08
7,GGCCTCTTCCCCAAACTAGGAGAGTGGACT,2.98
8,CAGGGTCAGAGGTCGCGAGGGAGAGCCCTA,3.65
9,AGGACTTATCCTTGGGACATTCTCACATTA,0.368
10,GACCGTCCCTGGGTACAACTTTATCTAAGG,0.636
11,GGAATGCGGGCTCCACCACTTGCTCACGAA,-1.23
12,CAATTGCCCTACAGCTCCTGAGTCCACATG,1.98
13,CAGCTGTCGTGTGAATAGCACTGACCAGCT,0.27
14,ACCGTAAATGCATTATTGCACTGTGCTTTG,1.3
15,AATACTGTGCAAATCCCCGCCTTTGACACA,1.95
16,TTACGGGGTGGTTTATCTGCCTGTGGATAG,1.17
17,TTTCCCCGTCCCAAGCTGAGGTCTGGTGTC,2.83
18,GGAAGGATAAGAGCAAGAAACAGCAAATGC,-1.36
19,ATAGGAAAAGGGAGTTTTCTGCTCTCAACT,-1.33
20,CAGCTTTCTTTTCCAACCATTGACACTCCT,1.17
21,AAGCAAGACAATGCACTCATAACTAGGGTT,-1.13
